# Experimental data published in PubChem BioAssay AID1345083 (National Center for Advancing Translational Sciences (NCATS), 2018).
# Among all 94,000 compounds or so, about 6,200 (6.6%) were called active. This list was built around the results that the source calls inconclusive (neither active nor inactive); the mix of calls is not that of the screen. Calls come from the whole dose curve; as a rule, active = well fitted inhibition curve with a large enough effect; inconclusive = small, poorly fitted or top-dose-only effect; inactive = flat fitted curve, though single readings scatter. Potencies of inconclusive entries are doubtful fits and often do not repeat.
# Test: Cytotoxic Profiling in HEK 293 Cell Line of Diverse Libraries Using Quantitative High-Throughput Screening; note: nearly all actives have a fitted effect of over 60% in size
# Details: HEK 293 viability, ATP luminescence (CellTiter-Glo), 48-72 h; activity change, negative = cytotoxicity: at 115 µM (top of the series) unless noted; series mostly up to 115 µM
# Summary of the method: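 ATP-coupled CellTiter-Glo luminescence served as viability read-out, recorded 10 min after reagent addition at room temperature. HEK 293 cells, 250 cells/well, had been incubated with pintool-transferred compound for 48 or 72 hr at 37 degree Celsius.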
# % is set by controls: 0 for no effect and ±100 for the full control effect; potency is the fitted concentration of half-maximal effect; tags give direction and shape of the fitted curve.
SMILES,Potency,"activity change, negative = cytotoxicity",outcome
Cc1ccc(Cc2ccccc2C(=O)N2CCOC(C(F)(F)F)C2)cc1 (configuration not stated),"inconclusive: 44.7 µM [inhibitor, partial curve, poor fit]",,
CC(C)N1C[C@@H](COCc2ccccc2)[C@H](c2ccccc2)[S+]1(=O)[O-],"inconclusive: 56.2 µM [inhibitor, partial curve, poor fit]",,
O=C(NCc1cccnc1)c1ccc(N2CC3CC(C2)[C@H]2CCCC(=O)N2C3)nc1 (some centres not stated),,inactive: 9.96%,
O=C(c1nc2c(o1)CCN(Cc1cc(F)ccc1F)CC2)N1CCOCC1,"inconclusive: 100 µM [inhibitor, partial curve, poor fit]",,
COc1ccccc1OCCNC(=O)[C@]12CCCC[C@@H]1N(C)C(=O)CC2,,inactive: -0.969%,
O=c1[nH]n(CCn2cc(C3CCCNC3)nn2)c(=O)c2ccccc12 (configuration not stated),,inactive: -7.36%,
O=C1Cc2c(-c3ccccc3Cl)n[nH]c2CN1CC1CCOCC1,,inactive: -8.78% [at 172 µM],
COCCn1ccc2ccc(C(=O)Nc3ccc4c(c3)C(=O)N3CCC[C@H]3C(=O)N4)cc21,"inconclusive: 35.5 µM [inhibitor, partial curve, poor fit]",,
Cc1ccc(C2CC(=O)Nc3c2c(C2CC2)nn3C)c(C)c1F (configuration not stated),"inconclusive: 79.4 µM [inhibitor, partial curve, poor fit]",,
CCOCC(=O)N1CCC(C2CCNC2)CC1 (configuration not stated),,inactive: 0.803%,
COc1cccc(N2CC(C(=O)NCCSC)NC2=O)c1 (configuration not stated),,inactive: -3.63% [at 172 µM],
CCS(=O)(=O)N1CCC(Cc2ncc(C)n2Cc2ccccc2)C1 (configuration not stated),,inactive: -0.0117%,
O=C1c2cc(N3CCOCC3)nc(-c3ccc(F)cc3)c2CN1Cc1ccccc1,"inconclusive: 35.5 µM [inhibitor, full curve]",,
O=C(NC1CCN(c2cc(-c3ccccc3)[nH]n2)CC1)c1cccs1,"inconclusive: 79.4 µM [inhibitor, partial curve, poor fit]",,
O=C(NCCc1ccc(Cl)cc1)c1nc2cccnc2n(C2CCCCC2)c1=O,"inconclusive: 39.8 µM [inhibitor, partial curve, poor fit]",,
Cc1ccc(OCCC2CCN(C(=O)c3ccoc3)C2)cc1 (configuration not stated),"inconclusive: 50.1 µM [inhibitor, partial curve, poor fit]",,
CN(C(=O)C1CCCC1)C1CCc2ccccc2C1 (configuration not stated),"inconclusive: 89.1 µM [inhibitor, partial curve, poor fit]",,
O=C(c1cc2c(s1)CN(C1CCCC1)C2)N1CCCCCC1,"inconclusive: 50.1 µM [inhibitor, partial curve, poor fit]",,
COCCc1noc(-c2ccccc2OC2CN(C(=O)Cc3cccc(C)c3)C2)n1,"inconclusive: 89.1 µM [inhibitor, single point]",,
COc1cccc(-c2cc3c(=O)n(CCNC(=O)c4cc5ccccc5[nH]4)ccn3n2)c1,"inconclusive: 50.1 µM [inhibitor, partial curve, poor fit]",,
O=[S+]([O-])(NC1CCN(c2ccc3nnc(C4CC4)n3n2)C1)c1cccc(C(F)(F)F)c1 (configuration not stated),"inconclusive: 44.7 µM [inhibitor, partial curve]",,

SMILES,Potency,"activity change, negative = cytotoxicity",outcome
CC(=O)N1CCC(N[C@@H]2C[C@H](Cn3cc(C4CC4)nn3)[C@@H](O)[C@H]2O)CC1,,,inactive
COCCN1CC(CO)C2(CCN(C(=O)c3cc(Cl)ccc3OC)CC2)C1 (configuration not stated),"inconclusive: 79.4 µM [inhibitor, partial curve]",,
CN1c2cccnc2CN(Cc2ccc(C(F)(F)F)cc2)CC[C@H]1CO,"inconclusive: 112 µM [inhibitor, partial curve]",,
COc1ccc(NC(=O)c2ccc3c(c2)N(C(=O)c2ccc(F)cc2)CC3)cc1OC,"inconclusive: 56.2 µM [inhibitor, partial curve, poor fit]",,
COc1ccc(-c2nc3c(c(-c4ccccc4)n2)CN(C(=O)C(C)(C)C)CC3)cc1,"inconclusive: 50.1 µM [inhibitor, partial curve, poor fit]",,
COC[C@@H]1CN(Cc2ccc(OC)c(OC)c2)C[C@H]1c1ccncc1,"inconclusive: 31.6 µM [inhibitor, partial curve, poor fit]",,
Cc1ccc(-c2cc(C(=O)NCCN3CCN(C)CC3)n(C)c2)cc1,"inconclusive: 89.1 µM [inhibitor, single point]",,
CC(C)c1noc(-c2nc(-c3ccc4c(c3)OCO4)no2)n1,"inconclusive: 44.7 µM [inhibitor, partial curve, poor fit]",,
COc1ccc(C(=O)N2CC(Oc3ccccc3-c3nc(-c4cnccn4)no3)C2)cn1,"inconclusive: 70.8 µM [inhibitor, single point]",,
CCN(CC)c1ccc(CNC(=O)c2ccc3c(c2)n(C)c(=O)c2ccnn23)cc1,"inconclusive: 89.1 µM [inhibitor, single point]",,
C[S+](=O)([O-])NC1CCN(c2ccc3nnc(-c4ccccc4)n3n2)C1 (configuration not stated),,inactive: -8.7%,
CN1CCN(c2ccc(-c3cn(C)c(=O)n4cc(CNc5ccccc5)nc34)cn2)CC1,active: 70.8 µM,,
COCCc1noc([C@@H]2CN(Cc3ccc4c(c3)CCO4)C[C@H]2CO)n1,,inactive: -21.1%,
CCn1cc(CN2CCC(N3C(=O)C4(CCCCC4)C3c3ccccc3)CC2)cn1 (configuration not stated),"inconclusive: 100 µM [inhibitor, single point]",,
COc1cc2c(cc1OC)C(CNS(=O)(=O)c1ccc(C)cc1)N(C(=O)NC(C)(C)C)CC2 (configuration not stated),"inconclusive: 56.2 µM [inhibitor, partial curve, poor fit]",,
COc1ccc(-c2nnc3ccc(N4CCN(C(C)=O)CC4)nn23)nc1,,inactive: -3.57% [at 172 µM],
CC1=C(C(=O)Nc2ccccc2)C(c2cccc(C)c2)N2C(CC(=O)NC(C)C)=CSC2=N1 (configuration not stated),"inconclusive: 56.2 µM [inhibitor, partial curve, poor fit]",,
COCC1(CNC(=O)c2cc(C)on2)C[C@@H](O)[C@@H](O)C1 (some centres not stated),,,inactive [at 230 µM]
CC(C)CN1C(=O)c2cccn2CC1C(=O)NCCCN1CCc2ccccc2C1 (configuration not stated),,inactive: -8.18%,
c1cc(Cn2cncn2)cc(-n2ccnc2-c2cc3n(n2)CCCNC3)c1,,,inactive
COCCCN1CCc2c(n(Cc3ccccc3)n(-c3ccccc3)c2=O)C1,"inconclusive: 126 µM [inhibitor, single point]",,
